Reference: the RNAGym collection of RNA variant scans (doi:10.1093/nar/gkz1192)
The source gives no read counts; variants with many changes may rest on few reads.

B1: CPEB3 Ribozyme (parent)
chain: UAACAGGGGGCCACAGCAGAAGCGUUCACGUCGCAGCCCCUGUCAGAUUCUGGUGAAUCUGCGAAUUCUGCUGUAUAUCUC

Variants of: B1
Experiment: self-cleavage, relative activity (ratio to wild type); higher = more cleavage; in vitro, sequencing
In short: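 For each CPEB3 ribozyme variant, relative activity is its cleaved/total read fraction divided by the unmutated ribozyme's. Barcoded error-prone PCR libraries were transcribed by T7 RNA polymerase (5 hours, 37°C) and held in DNase I for 15 min before an EDTA stop, with cleavage occurring throughout. Template-switching reverse transcription and Illumina sequencing were used to read the RNAs. A 5-read minimum applied, and results are the mean of three batches.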

Row | Variant | self-cleavage
1 | A45G U72A G73A | 1.26
2 | A45G U72C C79A | 1.19
3 | A45G U72C U80A | 1.17
4 | A45G U74C A75U | 1.27
5 | A45G U76A A77U | 0.74
6 | A45G U76C U78C | 0.93
7 | A45G U78C C79U | 0.94
8 | A45U A47C U49C | 0.29
9 | A45U A47C U58A U60A | 0.51
10 | A45U A47G A64G U66C | 0.13
11 | A45U A47G A65U | 0.11
12 | A45U A47G G61A | 0.45
13 | A45U A47G U66C U78C | 0.09
14 | A45U A56G U58C | 0.39
15 | A45U A56G U60C | 0.27
16 | A45U A56G U78C | 0.16
17 | A45U A57G U67A | 0.22
18 | A45U A57G U72C | 0.38
19 | A45U A57U U66A | 0.12
20 | A45U A64G U67G A75G | 0.1
21 | A45U A64G U69C | 0.41
22 | A45U A64G U74C | 0.35
23 | A45U A64G U80C | 0
24 | A45U A65G U66C U69C | 0.12

Row | Variant | self-cleavage
25 | A45U A65U U66C | 0.18
26 | A45U C50U U51C A56U | 0.11
27 | A45U C50U U54G | 0.16
28 | A45U C62A U67C | 0.35
29 | A45U C62G G63A | 0.2
30 | A45U C62U C68A | 0.41
31 | A45U C62U U69C | 0.18
32 | A45U G52A C79U | 0.79
33 | A45U G53A U60C U72C | 0.54
34 | A45U G53U A56U U72G | 0.09
35 | A45U G55A U58C C59G U60A | 0.11
36 | A45U G55A U69C | 0.15
37 | A45U U48A U72A U78C | 0.09
38 | A45U U48C A57G | 0.55
39 | A45U U48C C59U U60A U67C C81U | 0.19
40 | A45U U48C U51A U54C U78C | 0.12
41 | A45U U48C U67A U72C | 0.05
42 | A45U U49A A57G U58A | 0.11
43 | A45U U49A G70A U72A | 0.12
44 | A45U U49C A64G G73A | 0.06
45 | A45U U49C A77G | 0.39
46 | A45U U49C C71A | 0.15
47 | A45U U49C G61A | 0.05
48 | A45U U49C G73A | 0.06

Row | Variant | self-cleavage
49 | A45U U49C U51A | 0.1
50 | A45U U49C U69A U78A | 0.05
51 | A45U U49G C81U | 0.18
52 | A45U U51A C71U | 0.35
53 | A45U U51A U54C | 0.36
54 | A45U U51A U58C U74A | 0.1
55 | A45U U51A U72C U80C | 0.66
56 | A45U U51C C62G | 0.15
57 | A45U U51C G52U | 0.29
58 | A45U U51C U54C U69C | 0.2
59 | A45U U54A A56G U72A | 0.35
60 | A45U U54A U58C U78C | 0.12
61 | A45U U54A U78A | 0.48
62 | A45U U54A U80C | 0.66
63 | A45U U54C A56G | 0.25
64 | A45U U54C A65G | 0.2
65 | A45U U58A U66C | 0.28
66 | A45U U58C C68U | 0.08
67 | A45U U58C G63A A64G | 0.17
68 | A45U U58C U60C | 0.19
69 | A45U U60A A64G | 0.72
70 | A45U U60C A65G U66A U78C U80C | 0.12
71 | A45U U60C G61A | 0.15
72 | A45U U60C U78C | 0.4

Row | Variant | self-cleavage
73 | A45U U60G C62A | 0.34
74 | A45U U67G U80C | 0.1
75 | A45U U69A U76C | 0.32
76 | A45U U69C A75G A77G | 0.19
77 | A45U U72A U78C | 0.39
78 | A45U U72C U76C | 0.58
79 | A45U U72C U80A | 0.42
80 | A45U U72C U80C | 0.66
81 | A45U U78C U80A | 0.54
82 | G46A A47G A57G U58C C62A | 0
83 | G46A A47G U51C U66C U69A | 0.1
84 | G46A A57G A75G | 0.18
85 | G46A C62A U67C | 0.12
86 | G46A G52A G55C | 0.15
87 | G46A G53U U80C | 0.65
88 | G46A U48C A65G | 0.12
89 | G46A U54C U72A | 0.18
90 | G46A U76C U80C | 0.16
91 | G46A U78C U80C | 0.07
92 | G46C U76A A77G | 0.22
93 | G46U A47G U49G C62U A65G | 0.08
94 | G46U A64G A65G U80C | 0.24
95 | G46U A64G A65U | 0.16
96 | G46U A65G U69C | 0.1

Row | Variant | self-cleavage
97 | G46U U48C U51A | 0.07
98 | G46U U48C U60C U66C U78C | 0.05
99 | G46U U49C G63A | 0.34
100 | G46U U58A A65G | 0.07
101 | G46U U66C G73U | 0.43
102 | G46U U67A U80C | 0.14
103 | A47C A56G U66G | 0.11
104 | A47C U48C U72A | 0.19
105 | A47C U54A C62A U67A U69A | 0.1
106 | A47C U69A U74C A75G | 0.19
107 | A47C U72A U74A | 0.68
108 | A47G A56C A65G U66C U67C | 0.14
109 | A47G A56G G63U U80C | 1.1
110 | A47G A56G U60C | 0.21
111 | A47G A56G U67A | 0.46
112 | A47G A56G U78C | 0.49
113 | A47G A56U A64U | 0.15
114 | A47G A57G U72A | 0.58
115 | A47G A57G U76C | 0.56
116 | A47G A64G U80C | 0.58
117 | A47G A64U U69A | 0.23
118 | A47G A65G U67C | 0.13
119 | A47G A65G U67C U72C | 0.24
120 | A47G A65G U67C U76C | 0.13

Row | Variant | self-cleavage
121 | A47G A65G U69A | 0.25
122 | A47G C59U U74A | 0.91
123 | A47G G53C A65G A77U | 0.59
124 | A47G G53C U74A A75G | 1.07
125 | A47G G55U A56G U78A | 0.93
126 | A47G G63A A77G | 0.9
127 | A47G U48C A57G | 1.18
128 | A47G U48C U49C C59A U67C | 0.11
129 | A47G U48C U54C G63A U76C | 0.11
130 | A47G U48C U60C A75G | 0.07
131 | A47G U48C U69G U72A | 0.18
132 | A47G U49A A64U | 0.16
133 | A47G U49A C50U A64U U80C | 0.26
134 | A47G U49A U60A U78A | 0.27
135 | A47G U49A U74C | 0.74
136 | A47G U49C A57G | 0.16
137 | A47G U49C C71A U80A | 0.13
138 | A47G U49C U54A A56U | 0.21
139 | A47G U49C U72A | 0.24
140 | A47G U49C U74A | 0.34
141 | A47G U51A A56G U72C | 0.64
142 | A47G U51A A57G | 0.2
143 | A47G U51A A75U | 1.17
144 | A47G U51A U67C U76C | 0.48

Row | Variant | self-cleavage
145 | A47G U51A U72C | 1.24
146 | A47G U51C A57U U80A | 0.19
147 | A47G U51C A64U U74C U78C | 0.35
148 | A47G U51C U72A U76A | 0.64
149 | A47G U54A U60C | 0.33
150 | A47G U54A U66C C79G | 0.73
151 | A47G U54C A64U U67C U72C | 0.17
152 | A47G U54C U60A A64G | 0.11
153 | A47G U54C U78C | 0.68
154 | A47G U58A C71U | 0.27
155 | A47G U60A A65G U72C | 0.14
156 | A47G U60A U69A A77G | 0.35
157 | A47G U60A U76A | 0.45
158 | A47G U60C A64G | 0.38
159 | A47G U60C U66C A75G | 0.16
160 | A47G U60C U69A U78A | 0.24
161 | A47G U66C U67C | 0.22
162 | A47G U66C U69C | 0.3
163 | A47G U67A U69A | 0.24
164 | A47G U67A U74C | 0.63
165 | A47G U69A A75G | 0.36
166 | A47G U69C U78C | 0.63
167 | A47G U72A U80A | 0.8
